# Data reported in the supplement of paper PMC10037445.
# In all, about 2,900 compounds were measured (“IRF Lucia reporter activity, fold change vs agonist alone”: median about 0.9, highest 2% from about 2.8 on). This is one part of the list.
# Tests used:
# RAW-Dual [1] = test: IRF Lucia reporter activity, fold change vs agonist alone; cytotoxicity flag (confluency mask): not cytotoxic; higher = enhanced IRF activity
# Procedure, shortened: (§1)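 Supernatant from RAW-Dual macrophages was read after 20 hours for IRF by QuantiLuc luminescence and for NF-κB by QuantiBlue absorbance at 620 nm. The cells (50,000 cells/well in DMEM, 384-well plates, 37 °C, 5% CO2) had received 50 nL of library stock by pin tool and, 1 h later, a PRR agonist. Reporter activity is expressed relative to agonist-alone wells as fold change, and wells were flagged cytotoxic if IncuCyte confluency was under 70% of agonist controls in both mask sets.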
# RAW-Dual [2] = test: IRF Lucia reporter activity, fold change vs agonist alone; higher = enhanced IRF activity; details: agonist: MPLA (TLR4) […]
# Procedure, shortened: as §1
# RAW-Dual [3] = test: IRF Lucia reporter activity, fold change vs agonist alone; cytotoxicity flag (confluency mask): cytotoxic (confluency <70% of control); higher = enhanced IRF activity
# Procedure, shortened: as §1
# [4] = agonist: 3'3'-cGAMP (STING) 10 ug/mL
# [5] = library stock concentration (final ~1000-fold dilution): 10 mM, cytotoxicity flag (confluency mask): not cytotoxic
# [6] = library stock concentration (final ~1000-fold dilution): 10 mM, cytotoxicity flag (confluency mask): cytotoxic (confluency <70% of control)
structure (smiles),measurement,setting,value
Cc1ccc(C(=O)c2ccc(CC(=O)O)n2C)cc1 (library stock concentration (final ~1000-fold dilution): 10 mM),IRF Lucia reporter activity,RAW-Dual [1]; [4],1.01
same,IRF Lucia reporter activity,RAW-Dual [1]; agonist: LPS (TLR4) 0.1 ug/mL,1.15
Cc1ccc(C(=O)c2ccc(CC(=O)O)n2C)cc1,IRF Lucia reporter activity,RAW-Dual [2]; [5],1.04
O=C(O)CN1C(=O)c2cccc3cccc(c23)C1=O (library stock concentration (final ~1000-fold dilution): 10 mM),IRF Lucia reporter activity,RAW-Dual [1]; [4],1.06
same,IRF Lucia reporter activity,RAW-Dual [1]; agonist: LPS (TLR4) 0.1 ug/mL,0.961
O=C(O)CN1C(=O)c2cccc3cccc(c23)C1=O,IRF Lucia reporter activity,RAW-Dual [2]; [5],1.01
Cc1ccsc1C(=CCCN1CCCC(C(=O)O)C1)c1sccc1C (stereo unspecified),IRF Lucia reporter activity,RAW-Dual [2]; [5],1
Cc1ccsc1C(=CCCN1CCCC(C(=O)O)C1)c1sccc1C (stereo unspecified) (library stock concentration (final ~1000-fold dilution): 10 mM),IRF Lucia reporter activity,RAW-Dual [1]; [4],0.964
same,IRF Lucia reporter activity,RAW-Dual [1]; agonist: LPS (TLR4) 0.1 ug/mL,1.29
CC(C)Oc1ccc(-c2c[nH]cc2CN(C)CCN)cc1 (library stock concentration (final ~1000-fold dilution): 10 mM),IRF Lucia reporter activity,RAW-Dual [1]; [4],0.247
same,IRF Lucia reporter activity,RAW-Dual [1]; agonist: LPS (TLR4) 0.1 ug/mL,0.755
NS(=O)(=O)c1cc(C2(O)NC(=O)c3ccccc32)ccc1Cl (stereo unspecified),IRF Lucia reporter activity,RAW-Dual [2]; [5],0.938
NS(=O)(=O)c1cc(C2(O)NC(=O)c3ccccc32)ccc1Cl (stereo unspecified) (library stock concentration (final ~1000-fold dilution): 10 mM),IRF Lucia reporter activity,RAW-Dual [1]; [4],0.904
same,IRF Lucia reporter activity,RAW-Dual [1]; agonist: LPS (TLR4) 0.1 ug/mL,1.08
O=C(NCc1c(F)cc(F)cc1F)c1cn2c(c(O)c1=O)C(=O)N1C3CCC(C3)OC1C2 (stereo unspecified) (library stock concentration (final ~1000-fold dilution): 10 mM),IRF Lucia reporter activity,RAW-Dual [3]; [4],0.19
same,IRF Lucia reporter activity,RAW-Dual [3]; agonist: LPS (TLR4) 0.1 ug/mL,0.312
O=C(NCc1c(F)cc(F)cc1F)c1cn2c(c(O)c1=O)C(=O)N1C3CCC(C3)OC1C2 (stereo unspecified),IRF Lucia reporter activity,RAW-Dual [2]; [6],0.253
CC(C)(C)c1cnc(CSc2cnc(NC(=O)C3CCNCC3)s2)o1 (library stock concentration (final ~1000-fold dilution): 10 mM),IRF Lucia reporter activity,RAW-Dual [3]; [4],0.0084
same,IRF Lucia reporter activity,RAW-Dual [3]; agonist: LPS (TLR4) 0.1 ug/mL,0.0291
CC(C)(C)c1cnc(CSc2cnc(NC(=O)C3CCNCC3)s2)o1,IRF Lucia reporter activity,RAW-Dual [2]; [6],0.0426
Cc1nc[nH]c1CN1CCc2c(c3ccccc3n2C)C1=O.Cl,IRF Lucia reporter activity,"RAW-Dual [2]; library stock concentration (final ~1000-fold dilution): 2 mM water, cytotoxicity flag (confluency mask): not cytotoxic",1.28
Cc1nc[nH]c1CN1CCc2c(c3ccccc3n2C)C1=O.Cl (library stock concentration (final ~1000-fold dilution): 2 mM water),IRF Lucia reporter activity,RAW-Dual [1]; [4],1.17
same,IRF Lucia reporter activity,RAW-Dual [1]; agonist: LPS (TLR4) 0.1 ug/mL,0.816
CC(=O)Nc1cccc(-n2c(=O)n(C3CC3)c(=O)c3c(Nc4ccc(I)cc4F)n(C)c(=O)c(C)c32)c1 (library stock concentration (final ~1000-fold dilution): 10 mM),IRF Lucia reporter activity,RAW-Dual [1]; [4],0.731
same,IRF Lucia reporter activity,RAW-Dual [1]; agonist: LPS (TLR4) 0.1 ug/mL,1.96
CC(=O)Nc1cccc(-n2c(=O)n(C3CC3)c(=O)c3c(Nc4ccc(I)cc4F)n(C)c(=O)c(C)c32)c1,IRF Lucia reporter activity,RAW-Dual [2]; [5],2.57
Cl.Cn1cc(C(=O)C2CCc3nc[nH]c3C2)c2ccccc21 (stereo unspecified) (library stock concentration (final ~1000-fold dilution): 10 mM),IRF Lucia reporter activity,RAW-Dual [1]; [4],1.01
same,IRF Lucia reporter activity,RAW-Dual [1]; agonist: LPS (TLR4) 0.1 ug/mL,0.582
Cl.Cn1cc(C(=O)C2CCc3nc[nH]c3C2)c2ccccc21 (stereo unspecified),IRF Lucia reporter activity,RAW-Dual [2]; [5],1.06
COc1c(O[C@@H]2O[C@H](CO)[C@@H](O)[C@H](O)[C@H]2O)cc2oc(-c3ccc(O)cc3)cc(=O)c2c1O (library stock concentration (final ~1000-fold dilution): 10 mM),IRF Lucia reporter activity,RAW-Dual [1]; [4],1.05
same,IRF Lucia reporter activity,RAW-Dual [1]; agonist: LPS (TLR4) 0.1 ug/mL,0.673
CC(C)CC1NC(=O)C(C(C)C)NC(=O)C2CCCN2C(=O)C(CC(=O)O)NC(=O)C(Cc2c[nH]c3ccccc23)NC1=O (stereo unspecified) (library stock concentration (final ~1000-fold dilution): 10 mM),IRF Lucia reporter activity,RAW-Dual [1]; [4],1.23
same,IRF Lucia reporter activity,RAW-Dual [1]; agonist: LPS (TLR4) 0.1 ug/mL,1.01
CC[N+](C)(C)c1cccc(O)c1,IRF Lucia reporter activity,RAW-Dual [2]; [5],1.06
CC[N+](C)(C)c1cccc(O)c1 (library stock concentration (final ~1000-fold dilution): 10 mM),IRF Lucia reporter activity,RAW-Dual [1]; [4],0.97
same,IRF Lucia reporter activity,RAW-Dual [1]; agonist: LPS (TLR4) 0.1 ug/mL,0.769
CCN(CCO)CCCOc1ccc2c(Nc3cc(CC(=O)Nc4cccc(F)c4)n[nH]3)ncnc2c1 (library stock concentration (final ~1000-fold dilution): 10 mM),IRF Lucia reporter activity,RAW-Dual [1]; [4],1.16
same,IRF Lucia reporter activity,RAW-Dual [1]; agonist: LPS (TLR4) 0.1 ug/mL,0.365
CCN(CCO)CCCOc1ccc2c(Nc3cc(CC(=O)Nc4cccc(F)c4)n[nH]3)ncnc2c1,IRF Lucia reporter activity,RAW-Dual [2]; [5],1.01
CC1(C)CC[C@]2(C(=O)O)CC[C@]3(C)C(=CC[C@@H]4[C@@]5(C)C[C@@H](O)[C@H](O)C(C)(C)[C@@H]5CC[C@]43C)[C@@H]2C1 (library stock concentration (final ~1000-fold dilution): 10 mM),IRF Lucia reporter activity,RAW-Dual [1]; [4],0.92
same,IRF Lucia reporter activity,RAW-Dual [1]; agonist: LPS (TLR4) 0.1 ug/mL,1.47
